Laboratory results reported in a collection of fitness landscapes (doi:10.1126/science.1257360).
The other results are listed elsewhere or left out.

B1: PhoQ; a variant is named by its letters at X, in order, P23837 (parent)
chain: MKKLLRLFFPLSLRVRFLLATAAVVLVLSLAYGMVALIGYSVSFDKTTFRLLRGESNLFYTLAKWENNKLHVELPENIDKQSPTMTLIYDENGQLLWAQRDVPWLMKMIQPDWLKSNGFHEIEADVNDTSLLLSGDHSIQQQLQEVREDDDDAEMTHSVAVNVYPATSRMPKLTIVVVDTIPVELKSSYMVWSWFIYVLSANLLLVIPLLWVAAWWSLRPIEALAKEVRELEEHNRELLNPATTRELTSLVRNLNRLLKSERERYDKYRTTLTDLTHSLKTPLXXLQXXLRSLRSEKMSVSDAEPVMLEQISRISQQIGYYLHRASMRGGTLLSRELHPVAPLLDNLTSALNKVYQRKGVNISLDISPEISFVGEQNDFVEVMGNVLDNACKYCLEFVEISARQTDEHLYIVVEDDGPGIPLSKREVIFDRGQRVDTLRPGQGVGLAVAREITEQYEGKIVAGESMLGGARMEVIFGRQHSAPKDE

Variants of: B1
Experiment: enrichment ratio after two sorts for PhoP signalling (ratio (wild type AVST 3.29)); higher = more functional
Details: with PhoP (E. coli)

Variant	enrichment ratio
VGDY	≤ 0.25
ITTN	≤ 0.25
EVYH	≤ 0.25
RHFL	≤ 0.25
WVID	≤ 0.25
RNID	≤ 0.25
QIWF	≤ 0.25
NSHP	≤ 0.25
VGEA	≤ 0.25
HVTL	≤ 0.25
PFLN	≤ 0.25
IATG	≤ 0.25
GVAN	≤ 0.25
PERE	≤ 0.25
MVRN	≤ 0.25
GLKM	≤ 0.25
VEGM	≤ 0.25
LLCL	≤ 0.25
NGDQ	≤ 0.25
IKDF	≤ 0.25
TDKR	≤ 0.25
YKLD	≤ 0.25
WHYF	≤ 0.25
HGLH	1.59

Variant	enrichment ratio
VREC	≤ 0.25
IHKW	≤ 0.25
KGAK	≤ 0.25
YPNY	≤ 0.25
TKMH	0.291
QLAM	≤ 0.25
RCMI	≤ 0.25
MYKM	≤ 0.25
VCWD	≤ 0.25
WGFA	≤ 0.25
KGIL	≤ 0.25
SLED	≤ 0.25
PWEF	≤ 0.25
FKQF	≤ 0.25
TSMN	12.3
FLEL	≤ 0.25
RDVP	≤ 0.25
FWHK	≤ 0.25
PWRP	≤ 0.25
GICS	11.2
KKLT	≤ 0.25
PDHP	≤ 0.25
SVLN	7.1
VDCY	≤ 0.25

Variant	enrichment ratio
HHAI	≤ 0.25
HWYN	≤ 0.25
MHND	≤ 0.25
EARF	≤ 0.25
MNGG	≤ 0.25
IQFN	≤ 0.25
EEDV	≤ 0.25
IVST	≤ 0.25
NADW	≤ 0.25
TQQP	≤ 0.25
FCHY	≤ 0.25
HRPQ	≤ 0.25
INKW	≤ 0.25
GEQL	≤ 0.25
YPAW	≤ 0.25
TMSK	≤ 0.25
SIFL	≤ 0.25
SHSD	≤ 0.25
WMKE	≤ 0.25
MSDP	≤ 0.25
IFHQ	≤ 0.25
AGIS	2.92
DTTN	≤ 0.25
NWHG	≤ 0.25

Variant	enrichment ratio
WPLA	≤ 0.25
RSHY	≤ 0.25
LPIA	≤ 0.25
PWPP	≤ 0.25
VLYT	≤ 0.25
ILNY	≤ 0.25
FVNK	≤ 0.25
EESH	≤ 0.25
GLQD	≤ 0.25
TIEV	1.07
KKFL	≤ 0.25
ENYN	≤ 0.25
NVYD	≤ 0.25
TWWA	≤ 0.25
DVRW	≤ 0.25
WDGW	≤ 0.25
YIIY	≤ 0.25
AMER	≤ 0.25
YLPR	≤ 0.25
WSKY	≤ 0.25
VFME	≤ 0.25
REIW	≤ 0.25
YGAK	≤ 0.25
WPMA	≤ 0.25

Variant	enrichment ratio
QRPC	≤ 0.25
HQCY	≤ 0.25
LARG	≤ 0.25
HKYD	≤ 0.25
DLSS	≤ 0.25
EATK	≤ 0.25
LNAL	≤ 0.25
RHLM	≤ 0.25
YGRK	≤ 0.25
MFDE	≤ 0.25
SMKC	≤ 0.25
RYRL	≤ 0.25
GDSC	5.26
TCLP	0.467
WNFT	≤ 0.25
LKPD	≤ 0.25
SMAW	1.9
LRKQ	≤ 0.25
YEYD	≤ 0.25
KYIP	≤ 0.25
HQHM	≤ 0.25
GIWC	≤ 0.25
RRRG	≤ 0.25
WALE	≤ 0.25

Variant	enrichment ratio
PITG	≤ 0.25
VALG	10.2
CFTH	≤ 0.25
LVWK	≤ 0.25
QVAF	1.05
YLTI	0.304
VGFS	≤ 0.25
KDLP	≤ 0.25
TMNS	7.25
HMRS	≤ 0.25
RMNQ	≤ 0.25
VAVN	≤ 0.25
RRLI	≤ 0.25
NNTY	≤ 0.25
YELD	≤ 0.25
FLGQ	≤ 0.25
MEDH	≤ 0.25
EEWL	≤ 0.25
LPDY	≤ 0.25
HLGF	≤ 0.25
HSFF	≤ 0.25
MYMQ	≤ 0.25
MVTH	2.25
MHYH	≤ 0.25

Variant	enrichment ratio
AYWS	≤ 0.25
GACK	≤ 0.25
GILN	10.6
HSSW	≤ 0.25
LGCV	≤ 0.25
VTEK	≤ 0.25
QDCG	≤ 0.25
NQTA	≤ 0.25
HEIA	≤ 0.25
TDTP	1.02
PFCD	≤ 0.25
KRVC	≤ 0.25
NNSS	≤ 0.25
YWHC	≤ 0.25
AYGQ	≤ 0.25
HLTQ	≤ 0.25
RELY	≤ 0.25
DYWG	≤ 0.25
YKGR	≤ 0.25
SEKH	≤ 0.25
LTTL	≤ 0.25
RPAK	≤ 0.25
LLYW	≤ 0.25
VLAC	≤ 0.25

Variant	enrichment ratio
GPYN	≤ 0.25
FQHP	≤ 0.25
QGMR	≤ 0.25
NGQA	≤ 0.25
TEMC	18.9
DLQC	≤ 0.25
YDWT	≤ 0.25
SCLW	0.544
EPHP	≤ 0.25
VPLR	≤ 0.25
LKQP	≤ 0.25
TVNL	2.08
FTNQ	≤ 0.25
VPRK	≤ 0.25
MNCA	≤ 0.25
IEQR	≤ 0.25
MNGA	≤ 0.25
CNFI	≤ 0.25
PEMT	≤ 0.25
GFGF	≤ 0.25
IYRV	≤ 0.25
THPK	≤ 0.25
REHQ	≤ 0.25
LFRN	≤ 0.25

Variant	enrichment ratio
PHNN	≤ 0.25
YLSR	≤ 0.25
IMRR	≤ 0.25
MPTM	≤ 0.25
DKIQ	≤ 0.25
NRGN	≤ 0.25
QNAP	≤ 0.25
LLNK	≤ 0.25
KSWS	≤ 0.25
GQVD	≤ 0.25
EFKV	≤ 0.25
MWLD	≤ 0.25
DWTC	≤ 0.25
KQTA	≤ 0.25
EAQM	≤ 0.25
FQHV	≤ 0.25
GISP	≤ 0.25
DASE	≤ 0.25
HITI	≤ 0.25
TVYQ	3.34
VRTH	≤ 0.25
GSDV	≤ 0.25
NGKY	≤ 0.25
NWCY	≤ 0.25

Variant	enrichment ratio
KFHG	≤ 0.25
NAYM	≤ 0.25
FHHL	≤ 0.25
KVSI	≤ 0.25
YSWW	≤ 0.25
SVYK	≤ 0.25
RAYY	≤ 0.25
KECA	≤ 0.25
NNFM	≤ 0.25
FKSI	≤ 0.25
KFAT	≤ 0.25
PDIC	≤ 0.25
WSYM	≤ 0.25
VVLD	≤ 0.25
TFSY	≤ 0.25
EFEV	≤ 0.25
IMAC	≤ 0.25
KWQA	≤ 0.25
DHLE	≤ 0.25
IELN	1.96
LEIW	≤ 0.25
RTYH	≤ 0.25
IHGV	≤ 0.25
EKED	≤ 0.25

Variant	enrichment ratio
FQGN	≤ 0.25
NQIM	≤ 0.25
IISG	≤ 0.25
NNFH	≤ 0.25
GYKG	≤ 0.25
YIWA	≤ 0.25
KISG	≤ 0.25
LVSW	≤ 0.25
WKNS	≤ 0.25
DIIH	≤ 0.25
LSKR	≤ 0.25
QINM	≤ 0.25
IKWW	≤ 0.25
ANTD	≤ 0.25
ILIS	≤ 0.25
KIHH	≤ 0.25
QAIS	≤ 0.25
AEMA	25.6
IDIC	≤ 0.25
NQSM	≤ 0.25
WMGF	≤ 0.25
TMRF	≤ 0.25
WYAK	≤ 0.25
TSDM	6.42

Variant	enrichment ratio
SCAV	6.67
NCKP	≤ 0.25
VQCP	≤ 0.25
NCIW	≤ 0.25
DDDL	≤ 0.25
LAFN	0.877
WTFW	≤ 0.25
FILN	4.41
KKPL	≤ 0.25
DWRG	≤ 0.25
LYID	≤ 0.25
TCPF	≤ 0.25
VSFV	0.649
AEIK	≤ 0.25
VLAF	≤ 0.25
MRMG	≤ 0.25
NESG	≤ 0.25
NDYC	≤ 0.25
QMIP	≤ 0.25
LHSR	≤ 0.25
EHFN	≤ 0.25
FCAH	≤ 0.25
PFRC	≤ 0.25
SCQC	≤ 0.25

Variant	enrichment ratio
AMCV	5.84
GVHF	≤ 0.25
EGTS	≤ 0.25
HMPY	≤ 0.25
RRRL	≤ 0.25
KYIH	≤ 0.25
RRGC	≤ 0.25
FDLM	≤ 0.25
LQHA	≤ 0.25
MDNT	≤ 0.25
KERR	≤ 0.25
PVAS	≤ 0.25
QPGQ	≤ 0.25
NVPT	≤ 0.25
GGGQ	≤ 0.25
TSHI	9.1
LYLF	≤ 0.25
WGSD	≤ 0.25
